Hit rate of the full screen: of about 410,000 compounds, about 5,000 (1.2%) were called active. Inconclusive means that the source gave no clear call. Such entries were picked first, then a sample of the others. The call rests on the fitted dose curve; in most records, active means well fitted inhibition curve with a large enough effect; inconclusive means small, poorly fitted or top-dose-only effect; inactive means no such curve, though single readings can be large or run the other way. A potency beside an inconclusive call is a rough fit, not a confirmed value.
test: qHTS for Inhibitors of TGF-b; details: HepG2 CAGA-GFP TGF-b/SMAD3 reporter, GFP fluorescence, 18 h, TGF-beta stimulated, 500 pg/mL final; series mostly up to 46.1 µM; activity, negative = inhibition: at the top concentration; further: nearly all actives have a fitted effect of over 65% in size
Procedure, shortened: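 Inhibition was scored as loss of TGF-beta-induced (500 pg/mL final, 18 hours, 37 degrees C) GFP in HEPG2 cells carrying a CAGA-GFP reporter, in DMEM with 1% FBS. Well GFP was summed per cell; Activity was normalised to unstimulated and stimulated DMSO wells, then concentration-response fitting.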
On the % scale 0 is the no-effect control and ±100 the full control effect; potency means the concentration at half of the fitted maximal effect; tags describe the fitted curve by direction and shape.

SMILES | activity, negative = inhibition | Potency
CCCCC(=O)Nc1ccc(NCc2ccc(C)s2)cc1 | inactive: -3.62% | –
Fc1ccc(Cn2c(SCc3ccc(F)c(C(F)(F)F)c3)nnc2C(F)(F)F)cc1 | – | inconclusive: 35.5 µM [inhibitor, single point]
Cc1cc(N/N=C/c2ccc(N(C)C)cc2)nc(NCc2ccccc2)n1 | – | inconclusive: 35.5 µM [inhibitor, single point]
CCOc1ccc(NC(=O)Cn2c(=O)n(Cc3ccco3)c(=O)c3oc4ccccc4c32)cc1 | – | inconclusive: 35.5 µM [inhibitor, partial curve, poor fit]
CNC(=O)c1cc(S(=O)(=O)N2CC(C)OC(C)C2)ccc1N1CCOCC1 (centres undefined) | inactive: 7.73% | –
O=C(Nc1nnc(-c2ccc(F)cc2)o1)c1cc(Cl)sc1Cl | – | inconclusive: 2.82 µM [inhibitor, full curve, poor fit]
Cc1ccc(S(=O)(=O)Nc2cccc(Oc3cnccn3)c2)cc1 | – | inconclusive: 35.5 µM [inhibitor, single point]
COCCNC(=O)CCc1nnc2ccc(N3CCC(C)CC3)nn12 | inactive: -5.03% | –
COc1ccc(NS(=O)(=O)c2cccc3cccnc23)cc1Cl | inactive: 0% | –
CC1CCN(S(=O)(=O)c2ccc3c(c2)oc(=O)n3CC(=O)NCc2ccc(F)cc2)CC1 | – | inconclusive: 14.1 µM [inhibitor, partial curve, poor fit]
COc1ccc(/C=C2\CCc3ccccc3C2=O)cc1O | – | inconclusive: 12.6 µM [inhibitor, partial curve, poor fit]
O=C(NNc1c(Cl)cccc1Cl)c1ccno1 | inactive: -11.9% | –
CC(C)CNC(=O)COC(=O)CCC(=O)c1ccc(Cl)cc1 | inactive: -1.21% | –
COc1ccc(-c2csc(N(CCCN(C)C)C(=O)c3ccc(Br)cc3)n2)cc1 | – | inconclusive: 12.6 µM [inhibitor, partial curve, poor fit]
Cc1ccc(NC(=O)[C@H](NC(=O)[C@@H]2Cc3ccccc3CN2)c2ccccc2)cc1C | – | inconclusive: 35.5 µM [inhibitor, single point]
FC(F)Oc1cccc(NC(=S)N2CCN(c3ccccn3)CC2)c1 | – | inconclusive: 11.2 µM [inhibitor, partial curve]
Cc1c(Cl)ccc2sc(NC(=O)c3ccc(S(=O)(=O)N4CCCc5ccccc54)cc3)nc12 | inactive: -10.7% | –
O=S(=O)(c1ccc2ccccc2c1)N(CC(O)COCc1ccco1)c1ccccc1 (centres undefined) | – | inconclusive: 28.2 µM [inhibitor, partial curve, poor fit]
O=C(Nc1nc(-c2cccs2)cs1)C1CC(=O)N(c2ccc3c(c2)OCCO3)C1 (centres undefined) | – | inconclusive: 8.91 µM [inhibitor, partial curve, poor fit]
CCSc1nc2c(c(=O)[nH]c(=O)n2C)n1CC(O)COc1ccccc1C (centres undefined) | – | inconclusive: 6.31 µM [inhibitor, single point]
COc1ccccc1C=NNC(=O)c1ccccc1OCCOc1ccccc1 | – | inconclusive: 10 µM [inhibitor, partial curve, poor fit]
COc1ccc(CC(=O)Nc2cccc(-c3csc(C)n3)c2)cc1 | – | inconclusive: 14.1 µM [inhibitor, single point]

SMILES | activity, negative = inhibition | Potency
Cc1cc(C(=O)CN2C(=O)NC(C)(c3cccc(Br)c3)C2=O)c(C)n1Cc1ccco1 (centres undefined) | – | inconclusive: 35.5 µM [inhibitor, single point]
Cc1cc(-c2n[nH]c(=S)n2/N=C/C(Br)=C/c2ccccc2)n[nH]1 | – | active: 7.08 µM
CCOc1cc(-c2nc3ccccc3s2)ccc1O | – | inconclusive: 6.31 µM [inhibitor, partial curve]
C=CCc1ccccc1OCCSc1nc(-c2ccc(C(C)(C)C)cc2)nc2cc(=O)[nH]n12 | – | inconclusive: 35.5 µM [inhibitor, single point]
COC(=O)c1sccc1-n1cc2c(c1-c1ccccc1)c(=O)n(C)c(=O)n2C | – | inconclusive: 0.631 µM [inhibitor, partial curve, poor fit]
Clc1cccc(N2CCN(c3nc4ccccc4n4cnnc34)CC2)c1 | inactive: 6.18% | –
CCn1c2ccc(C)cc2c2nnc(NN)nc21 | – | active: 14.1 µM
COc1ccc(-n2ccnc(NCc3ccc(Cl)cc3)c2=O)cc1 | – | inconclusive: 0.794 µM [inhibitor, full curve, poor fit]
CCc1ccc2[nH]c(=O)c(CN(Cc3ccc4c(c3)OCO4)C(=O)c3ccco3)cc2c1 | – | inconclusive: 20 µM [inhibitor, single point]
Cc1ccccc1CN(C)C(C)C(=O)Nc1ccccc1F (centres undefined) | – | inconclusive: 14.1 µM [inhibitor, partial curve]
COc1ccc(-n2nc3ccc(NC(=O)c4ccc(-c5cc(Cl)ccc5Cl)o4)cc3n2)cc1 | inactive: -6.47% | –
C/C(=N\NC(=O)c1ccc2c(c1)OCO2)c1ccc(NC(=O)CCCC(=O)O)cc1 | inactive: -1.56% | –
CCCN(CCC)S(=O)(=O)c1ccc(N2CCCC2=O)c([N+](=O)[O-])c1 | inactive: -4.27% | –
CCOc1cc(C(=S)N2CCOCC2)cc(Br)c1OS(=O)(=O)c1ccccc1 | inactive: -0.64% | –
CCc1ccccc1N(CC)C(=O)c1cn(C)c(=O)c2cc(OC)c(OC)cc12 | inactive: 21.8% | –
O=C(c1ccco1)N1CCN(C(=O)N2CCOCC2)CC1 | inactive: -1.96% | –
O=C1c2ccccc2C(=O)C12OC2c1ccc(Cl)cc1Cl (centres undefined) | – | inconclusive: 25.1 µM [inhibitor, single point]
Cc1ccc(/C=C/c2ccc(=O)n(Cc3ccccc3Cl)n2)cc1 | – | inconclusive: 22.4 µM [inhibitor, single point]
CCOC(=O)C1(C)CCCCCN1C(=O)c1ccc(OC)c(C(F)(F)F)c1 (centres undefined) | inactive: -7.52% | –
CCOC(=O)C[C@H]1c2cc(F)ccc2S(=O)(=O)N1Cc1cc(OC)c(OC)c(OC)c1 | – | inconclusive: 7.94 µM [inhibitor, partial curve]
O=C(CCCCCNC(=O)c1ccccc1)C[N+](=O)[O-] | – | inconclusive: 10 µM [inhibitor, partial curve, poor fit]
CCOC(=O)c1ccc(NC(=O)c2cccc(S(=O)(=O)N3c4ccccc4CC3C)c2)s1 (centres undefined) | – | inconclusive: 14.1 µM [inhibitor, partial curve, poor fit]

— PubChem BioAssay AID588855 (National Center for Advancing Translational Sciences (NCATS), 2011)
